Patent publication US20210047304A1, “Bromodomain Inhibitors” (AbbVie Inc., priority 2016, published 2021)

Biological target: BRD4 (BDII_E352-M457) (Homo sapiens, UniProt O60885)
Assay: TR-FRET bromodomain binding assay, BRD4 BDII

Compound: Cc1cc(F)cc(C)c1Oc1ccc(C(C)(C)O)cc1-c1cn(C)c(=O)cc1O[C@H]1CC[C@H](N2C(=O)CCCC2=O)CC1 [Example 80, 1-[trans-4-({5-[2-(4-fluoro-2,6-dimethylphenoxy)-5-(2-hydroxypropan-2-yl)phenyl]-1-methyl-2-oxo-1,2-dihydropyridin-4-yl}oxy)cyclohexyl]piperidine-2,6-dione]
- Ki: 2.05 nM

Compound: Cc1cc(F)cc(C)c1Oc1ccc(C(C)(C)O)cc1-c1cn(C)c(=O)cc1O[C@H]1CC[C@H](N2CCCOC2=O)CC1 [Example 39, 3-[trans-4-({5-[2-(4-fluoro-2,6-dimethylphenoxy)-5-(2-hydroxypropan-2-yl)phenyl]-1-methyl-2-oxo-1,2-dihydropyridin-4-yl}oxy)cyclohexyl]-1,3-oxazinan-2-one]
- Ki: 2 nM

Compound: Cc1cc(F)cc(C)c1Oc1ccc(C(C)(C)O)cc1-c1cn(C)c(=O)cc1O[C@H]1CC[C@@H](C(=O)N2CCCC2)CC1 [Example 77, 5-[2-(4-fluoro-2,6-dimethylphenoxy)-5-(2-hydroxypropan-2-yl)phenyl]-1-methyl-4-{[cis-4-(pyrrolidine-1-carbonyl)cyclohexyl]oxy}pyridin-2(1H)-one]
- Ki: 407 nM

Compound: Cc1cc(F)cc(C)c1Oc1ccc(C(C)(C)O)cc1-c1cn(C)c(=O)cc1O[C@H]1CC[C@H](N2CCC(C)(C)C2=O)CC1 [Example 48, 4-{[trans-4-(3,3-dimethyl-2-oxopyrrolidin-1-yl)cyclohexyl]oxy}-5-[2-(4-fluoro-2,6-dimethylphenoxy)-5-(2-hydroxypropan-2-yl)phenyl]-1-methylpyridin-2(1H)-one]
- Ki: 8.48 nM

Compound: Cc1cc(F)cc(C)c1Oc1ccc(C(C)(C)O)cc1-c1cn(C)c(=O)cc1O[C@H]1CC[C@H](n2cnccc2=O)CC1 [Example 144, 3-[trans-4-({5-[2-(4-fluoro-2,6-dimethylphenoxy)-5-(2-hydroxypropan-2-yl)phenyl]-1-methyl-2-oxo-1,2-dihydropyridin-4-yl}oxy)cyclohexyl]pyrimidin-4(3H)-one]
- Ki: 37.4 nM

Compound: Cc1cc(F)cc(C)c1Oc1ccc(C(C)(C)O)cc1-c1cn(C)c(=O)cc1O[C@H]1CC[C@H](NC(=O)N2CCNC2=O)CC1 [Example 123, N-[trans-4-({5-[2-(4-fluoro-2,6-dimethylphenoxy)-5-(2-hydroxypropan-2-yl)phenyl]-1-methyl-2-oxo-1,2-dihydropyridin-4-yl}oxy)cyclohexyl]-2-oxoimidazolidine-1-carboxamide]
- Ki: 3.37 nM

Compound: Cc1cc(F)cc(C)c1Oc1ccc(C(C)(C)O)cc1-c1cn(C)c(=O)cc1O[C@H]1CC[C@@H](C(=O)O)CC1 [Example 75, cis-4-({5-[2-(4-fluoro-2,6-dimethylphenoxy)-5-(2-hydroxypropan-2-yl)phenyl]-1-methyl-2-oxo-1,2-dihydropyridin-4-yl}oxy)cyclohexane-1-carboxylic acid]
- Ki: 786 nM

Compound: Cc1cc(F)cc(C)c1Oc1ccc(C(C)(C)O)cc1-c1cn(C)c(=O)cc1O[C@H]1CC[C@H](N2C(=O)[C@H]3CCCN3C2=O)CC1 [Example 138, (7aR)-2-[trans-4-({5-[2-(4-fluoro-2,6-dimethylphenoxy)-5-(2-hydroxypropan-2-yl)phenyl]-1-methyl-2-oxo-1,2-dihydropyridin-4-yl}oxy)cyclohexyl]tetrahydro-1H-pyrrolo[1,2-c]imidazole-1,3(2H)-dione]
- Ki: 3.59 nM

Compound: COC(=O)N[C@H]1CC[C@H](Oc2cc(=O)n(C)cc2-c2cc(C(C)(C)O)cnc2Oc2c(C)cc(F)cc2C)CC1 [Example 5, methyl (trans-4-{[2′-(4-fluoro-2,6-dimethylphenoxy)-5′-(2-hydroxypropan-2-yl)-1-methyl-6-oxo[1,6-dihydro[3,3′-bipyridine]]-4-yl]oxy}cyclohexyl)carbamate]
- Ki: 7.98 nM

Compound: CNC(=O)[C@H]1CC[C@H](Oc2cc(=O)n(C)cc2-c2cc(C(C)(C)O)ccc2Oc2c(C)cc(F)cc2C)CC1 [Example 101, trans-4-({5-[2-(4-fluoro-2,6-dimethylphenoxy)-5-(2-hydroxypropan-2-yl)phenyl]-1-methyl-2-oxo-1,2-dihydropyridin-4-yl}oxy)-N-methylcyclohexane-1-carboxamide]
- Ki: 10.1 nM

Compound: Cc1cc(F)cc(C)c1Oc1ccc(C(C)(C)O)cc1-c1cn(C)c(=O)cc1O[C@H]1CC[C@H](C#N)CC1 [Example 69, trans-4-({5-[2-(4-fluoro-2,6-dimethylphenoxy)-5-(2-hydroxypropan-2-yl)phenyl]-1-methyl-2-oxo-1,2-dihydropyridin-4-yl}oxy)cyclohexane-1-carbonitrile]
- Ki: 12.2 nM

Compound: Cc1cc(F)cc(C)c1Oc1ccc(C(C)(C)O)cc1-c1cn(C)c(=O)cc1O[C@H]1CC[C@H](NC(=O)C(C)(C)C)CC1 [Example 57, N-[trans-4-({5-[2-(4-fluoro-2,6-dimethylphenoxy)-5-(2-hydroxypropan-2-yl)phenyl]-1-methyl-2-oxo-1,2-dihydropyridin-4-yl}oxy)cyclohexyl]-2,2-dimethylpropanamide]
- Ki: 1.83 nM

Compound: Cc1cc(F)cc(C)c1Oc1ccc(C(C)(C)O)cc1-c1cn(C)c(=O)cc1O[C@H]1CC[C@H](NC(=O)C2(C#N)CC2)CC1 [Example 85, 1-cyano-N-[trans-4-({5-[2-(4-fluoro-2,6-dimethylphenoxy)-5-(2-hydroxypropan-2-yl)phenyl]-1-methyl-2-oxo-1,2-dihydropyridin-4-yl}oxy)cyclohexyl]cyclopropane-1-carboxamide]
- Ki: 4.12 nM

Compound: CC=C1NC(=O)N([C@H]2CC[C@H](Oc3cc(=O)n(C)cc3-c3cc(C(C)(C)O)ccc3Oc3c(C)cc(F)cc3C)CC2)C1=O [Example 133, 5-ethylidene-3-[trans-4-({5-[2-(4-fluoro-2,6-dimethylphenoxy)-5-(2-hydroxypropan-2-yl)phenyl]-1-methyl-2-oxo-1,2-dihydropyridin-4-yl}oxy)cyclohexyl]imidazolidine-2,4-dione]
- Ki: 2.74 nM

Compound: Cc1cc(F)cc(C)c1Oc1ccc(C(C)(C)O)cc1-c1cn(C)c(=O)cc1O[C@H]1CC[C@H](NC(=O)C23CC(NC(=O)OC(C)(C)C)(C2)C3)CC1 (relative stereo) [Example 72, tert-butyl (3-{[trans-4-({5-[2-(4-fluoro-2,6-dimethylphenoxy)-5-(2-hydroxypropan-2-yl)phenyl]-1-methyl-2-oxo-1,2-dihydropyridin-4-yl}oxy)cyclohexyl]carbamoyl}bicyclo[1.1.1]pentan-1-yl)carbamate]
- Ki: 2.68 nM

Compound: Cc1cc(F)cc(C)c1Oc1ccc(C(C)(C)O)cc1-c1cn(C)c(=O)cc1O[C@H]1CC[C@H](N2NCCC2=O)CC1 [Example 109, 5-[2-(4-fluoro-2,6-dimethylphenoxy)-5-(2-hydroxypropan-2-yl)phenyl]-1-methyl-4-{[trans-4-(5-oxopyrazolidin-1-yl)cyclohexyl]oxy}pyridin-2(1H)-one]
- Ki: 9.01 nM

Compound: CC(=O)C(=O)N[C@H]1CC[C@H](Oc2cc(=O)n(C)cc2-c2cc(C(C)(C)O)ccc2Oc2c(C)cc(F)cc2C)CC1 [Example 56, N-[trans-4-({5-[2-(4-fluoro-2,6-dimethylphenoxy)-5-(2-hydroxypropan-2-yl)phenyl]-1-methyl-2-oxo-1,2-dihydropyridin-4-yl}oxy)cyclohexyl]-2-oxopropanamide]
- Ki: 8.4 nM

Compound: Cc1cc(F)cc(C)c1Oc1ccc(C(C)(C)O)cc1-c1cn(C)c(=O)cc1O[C@H]1CC[C@H](N(C)C(=O)C(C)(C)C)CC1 [Example 59, N-[trans-4-({5-[2-(4-fluoro-2,6-dimethylphenoxy)-5-(2-hydroxypropan-2-yl)phenyl]-1-methyl-2-oxo-1,2-dihydropyridin-4-yl}oxy)cyclohexyl]-N,2,2-trimethylpropanamide]
- Ki: 3.09 nM

Compound: CC(=O)N1CCC(Nc2cc(=O)n(C)cc2-c2cc(C(C)(C)O)ccc2Oc2c(C)cccc2C)C1 (stereo not shown) [Example 14, 4-[(1-acetylpyrrolidin-3-yl)amino]-5-[2-(2,6-dimethylphenoxy)-5-(2-hydroxypropan-2-yl)phenyl]-1-methylpyridin-2(1H)-one]
- Ki: 91.9 nM

Compound: Cc1cc(F)cc(C)c1Oc1ccc(C(C)(C)O)cc1-c1cn(C)c(=O)cc1O[C@H]1CC[C@H](N2CCCCCC2=O)CC1 [Example 37, 1-[trans-4-({5-[2-(4-fluoro-2,6-dimethylphenoxy)-5-(2-hydroxypropan-2-yl)phenyl]-1-methyl-2-oxo-1,2-dihydropyridin-4-yl}oxy)cyclohexyl]azepan-2-one]
- Ki: 1.78 nM

Compound: Cc1cc(F)cc(C)c1Oc1ccc(C(C)(C)O)cc1-c1cn(C)c(=O)cc1O[C@H]1CC[C@H](N2C(=O)N[C@H](C(C)C)C2=O)CC1 [Example 131, (5R)-3-[trans-4-({5-[2-(4-fluoro-2,6-dimethylphenoxy)-5-(2-hydroxypropan-2-yl)phenyl]-1-methyl-2-oxo-1,2-dihydropyridin-4-yl}oxy)cyclohexyl]-5-(propan-2-yl)imidazolidine-2,4-dione]
- Ki: 3.82 nM

Compound: Cc1cc(F)cc(C)c1Oc1ccc(C(C)(C)O)cc1-c1cn(C)c(=O)cc1O[C@H]1CC[C@H](N2NC(=O)CC2=O)CC1 [Example 121, 1-[trans-4-({5-[2-(4-fluoro-2,6-dimethylphenoxy)-5-(2-hydroxypropan-2-yl)phenyl]-1-methyl-2-oxo-1,2-dihydropyridin-4-yl}oxy)cyclohexyl]pyrazolidine-3,5-dione]
- Ki: 229 nM

Compound: CC(=O)NC1CC2(C1)CC(Nc1cc(=O)n(C)cc1-c1cc(C(C)(C)O)ccc1Oc1c(C)cccc1C)C2 (stereo not shown) [Example 10, N-[6-({5-[2-(2,6-dimethylphenoxy)-5-(2-hydroxypropan-2-yl)phenyl]-1-methyl-2-oxo-1,2-dihydropyridin-4-yl}amino)spiro[3.3]heptan-2-yl]acetamide]
- Ki: 5.7 nM

Compound: Cc1cc(F)cc(C)c1Oc1ccc(C(C)(C)O)cc1-c1cn(C)c(=O)cc1O[C@H]1CC[C@H](NC(=O)C2(C)CC(=O)C2)CC1 [Example 87, N-[trans-4-({5-[2-(4-fluoro-2,6-dimethylphenoxy)-5-(2-hydroxypropan-2-yl)phenyl]-1-methyl-2-oxo-1,2-dihydropyridin-4-yl}oxy)cyclohexyl]-1-methyl-3-oxocyclobutane-1-carboxamide]
- Ki: 3.23 nM

Compound: Cc1cc(F)cc(C)c1Oc1ccc(C(C)(C)O)cc1-c1cn(C)c(=O)cc1O[C@H]1CC[C@H](C(=O)N2CCCC2)CC1 [Example 62, 5-[2-(4-fluoro-2,6-dimethylphenoxy)-5-(2-hydroxypropan-2-yl)phenyl]-1-methyl-4-{[trans-4-(pyrrolidine-1-carbonyl)cyclohexyl]oxy}pyridin-2(1H)-one]
- Ki: 15.4 nM
